Data published in the supplement of paper PMC8183993.
Structures can show the parent of a compound that is named as a salt. ± gives the standard deviation of the averaged measurements. In all, about 3,100 compounds were measured (“mean cytoplasmic OPP incorporation (global translation) relative to DMSO”: median about 100, lowest 2% from about 56 on). This is one part of the list.

test system: U2OS; test: mean cytoplasmic OPP incorporation (global translation) relative to DMSO (% of DMSO); higher = more protein synthesis; settings: 10 µM; 24 h
Procedure: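 Primary image-based screen in U2OS cells: compounds at 10 uM for 24 h, then a 1 h o-propargyl-puromycin (OPP) pulse, click labelling, and high-throughput microscopy. Mean cytoplasmic OPP intensity and nuclei count were normalised to DMSO wells within each plate (DMSO = 100) and averaged over triplicate plates.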

Row | SMILES | mean cytoplasmic OPP incorporation
1 | CNCC(=O)c1ccc(O)c(O)c1 [Adrenalone HCl] | 98.9
2 | CCCN(CCC)C1CCc2ccc(O)cc2C1 (stereo not given) [7-Hydroxy-DPAT hydrobromide] | 100
3 | C[C@](O)(COc1ccc(C#N)cc1)C(=O)Nc1ccc(C#N)c(C(F)(F)F)c1 [Ostarine (MK-2866)] | 95.5
4 | CC(N)Cc1c[nH]c2ccc(O)cc12 (stereo not given) [_-Methyl-5-hydroxytryptamine maleate] | 108
5 | Oc1ccc2c3c1O[C@H]1c4c(c5ccccc5n4Cc4ccccc4)C[C@@]4(O)C(C2)N(CC2CC2)CC[C@]314 [N-Benzylnaltrindole hydrochloride] | 111
6 | BrC1C(Br)C(Br)C(Br)C(Br)C1Br (stereo not given) [1,2,3,4,5,6-Hexabromocyclohexane] | 97.7
7 | COc1ccc(CCN2CCC(Nc3nc4ccccc4n3Cc3ccc(F)cc3)CC2)cc1 [Astemizole] | 112 ± 2.2
8 | CC(=O)Nc1ccc(OC[C@](C)(O)C(=O)Nc2ccc([N+](=O)[O-])c(C(F)(F)F)c2)cc1 [Andarine (GTX-007)] | 94.5
9 | Oc1cc2c(cc1O)[C@H]1c3ccccc3CN[C@@H]1CC2 (racemic) [Dihydrexidine hydrochloride] | 101
10 | CC(=O)O[C@H]1C[C@H](O[C@H]2[C@@H](O)C[C@H](O[C@H]3[C@@H](O)C[C@H](O[C@H]4CC[C@@]5(C)[C@H](CC[C@@H]6[C@@H]5C[C@@H](O)[C@]5(C)[C@@H](C7=CC(=O)OC7)CC[C@]65O)C4)O[C@@H]3C)O[C@@H]2C)O[C@H](C)[C@H]1O[C@@H]1O[C@H](CO)[C@@H](O)[C@H](O)[C@H]1O [Lanatoside C] | 27.8
11 | C[C@]12N[C@H](Cc3ccccc31)c1ccccc12 [Dizocilpine maleate] | 98.7
12 | C[N+]1([O-])[C@@H]2C[C@@H](OC(=O)[C@H](CO)c3ccccc3)C[C@H]1[C@@H]1O[C@@H]12 (stereo not given in full) [Scopolamin-N-oxide hydrobromide] | 96.7
13 | CCC(=O)CCCCC[C@@H]1NC(=O)[C@H]2CCCCN2C(=O)[C@H]([C@@H](C)CC)NC(=O)[C@H](Cc2cn(OC)c3ccccc23)NC1=O [Apicidin] | 72.9 ± 6.7
14 | CCN(CC)C(C)C(=O)c1ccccc1 (stereo not given) [Amfepramone hydrochloride] | 99.7
15 | COC(=O)/C=C/C(=O)N[C@@H]1CC[C@@]2(O)[C@H]3Cc4ccc(O)c5c4[C@@]2(CCN3CC2CC2)[C@H]1O5 [_-Funaltrexamine hydrochloride] | 93.8
16 | O[C@@H]1CCCC[C@H]1N1CCC(c2ccccc2)CC1 [L(-)-vesamicol hydrochloride] | 104
17 | O=C1CCCN1CC#CCN1CCCC1 [Oxotremorine sesquifumarate] | 101
18 | CC(C)n1cnc2c(C(=O)N[C@H]3CN4CCC3CC4)cc(Cl)cc21 | 106
19 | Oc1cc(Cl)ccc1Oc1ccc(Cl)cc1Cl [Triclosan] | 116
20 | CC1(C)C(C=C(Cl)Cl)C1C(=O)OC(C#N)c1cccc(Oc2ccccc2)c1 (stereo not given) [Cypermethrin] | 105

Row | SMILES | mean cytoplasmic OPP incorporation
21 | CCC(C)C1O[C@]2(C=C[C@@H]1C)C[C@@H]1CC(C/C=C(\C)[C@@H](OC3C[C@H](OC)[C@@H](OC4C[C@H](OC)[C@@H](O)[C@H](C)O4)[C@H](C)O3)[C@@H](C)/C=C/C=C3\COC4[C@H](O)C(C)=CC(C(=O)O1)[C@]34O)O2 (stereo not given in full) [Avermectin B1a] | 104
22 | c1cc(Cc2cnc[nH]2)ccn1 [Immethridine dihydrobromide] | 88.1
23 | CC1=C(O)C(=O)C=C2C1=CC=C1[C@@]2(C)CC[C@@]2(C)[C@@H]3C[C@](C)(C(=O)O)CC[C@]3(C)CC[C@]12C [Celastrol] | 100
24 | CC(=O)Oc1ccc(/C=C/c2cc(OC(C)=O)cc(OC(C)=O)c2)cc1 [Triacetylresveratrol] | 103
25 | OC1CCCCC1N1CCC(c2ccccc2)CC1 (racemic) [(±)-Vesamicol hydrochloride] | 103
26 | CCCN1C[C@H](CSC)C[C@@H]2c3cccc4[nH]cc(c34)C[C@H]21 [Pergolide mesylate] | 102.7 ± 1
27 | N.N.[Cl][Pt][Cl] [Cisplatin] | 106
28 | Oc1ccc2c3c1O[C@H]1c4[nH]c5c(c4C[C@@]4(O)[C@@H](C2)N(CC2CC2)CC[C@]314)C[C@@]1(O)[C@H]2Cc3ccc(O)c4c3[C@@]1(CCN2CC1CC1)[C@H]5O4 [nor-Binaltorphimine dihydrochloride] | 102
29 | C[N+]1(C)CCc2cc3c(cc2C1C1OC(=O)c2c1ccc1c2OCO1)OCO3 (single isomer, unassigned; (-)) [(-)-Bicuculline methobromide] | 115
30 | C[C@H]1CCC/C=C/[C@@H]2C[C@H](O)C[C@H]2[C@H](O)/C=C/C(=O)O1 [Brefeldin A] | 75 ± 10
31 | CN1c2ccccc2C(NCCCCCCC(=O)O)c2ccc(Cl)cc2S1(=O)=O (stereo not given) [Tianeptine] | 100
32 | CN1c2ccccc2C(NCCCCCCC(=O)O)c2ccc(Cl)cc2S1(=O)=O (stereo not given) [Tianeptine sodium] | 103
33 | CN1CCN(c2ccc([N+](=O)[O-])c3no[n+]([O-])c23)CC1 | 98.2
34 | CCC(=O)O[C@@](Cc1ccccc1)(c1ccccc1)[C@@H](C)CN(C)C [Levopropoxyphene napsylate] | 116
35 | N#Cc1nn(-c2c(Cl)cc(C(F)(F)F)cc2Cl)c(N)c1[S+]([O-])C(F)(F)F (stereo not given) [Fipronil] | 97.1
36 | CC[N+](CC)(CCCNC1=CC(=O)C(NCCC[N+](CC)(CC)Cc2ccccc2)=CC1=O)Cc1ccccc1 [Benzoquinonium dibromide] | 101
37 | CC(C)C[C@@H](N)C1(c2ccc(Cl)cc2)CCC1 | 91.4
38 | CC[C@@]1(O)C(=O)OCc2c1cc1n(c2=O)Cc2cc3ccccc3nc2-1 [Camptothecine (S,+)] | 59.4
39 | CC[C@@]1(O)C(=O)OCc2c1cc1n(c2=O)Cc2cc3ccccc3nc2-1 [Camptothecin] | 80.8
40 | CO/C1=C\C(C)=C\[C@@H](C)[C@@H](O)[C@@H](C)C/C(C)=C/C=C/[C@H](OC)[C@@H]([C@@H](C)[C@@H](O)[C@H](C)[C@@]2(O)C[C@@H](O)[C@H](C)[C@@H](C(C)C)O2)OC1=O [Bafilomycin A1] | 111.4 ± 0.73
